Experimental data from PMC4336329 (PLoS ONE, 2015).
Among all 310,000 compounds or so, about 14,000 (4.5%) showed an effect of 50% or more. Effects have a minus sign here. Some of the results follow.

Target: human ether-à-go-go-related gene (hERG) potassium channel (human, UniProt Q12809)
Assay: primary screen, population patch clamp on CHO cells stably expressing hERG
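Note: peak tail current of the secondary pulse compared with the same well before compound.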

Chain of human ether-à-go-go-related gene (hERG) potassium channel (Q12809 whole entry, looked up): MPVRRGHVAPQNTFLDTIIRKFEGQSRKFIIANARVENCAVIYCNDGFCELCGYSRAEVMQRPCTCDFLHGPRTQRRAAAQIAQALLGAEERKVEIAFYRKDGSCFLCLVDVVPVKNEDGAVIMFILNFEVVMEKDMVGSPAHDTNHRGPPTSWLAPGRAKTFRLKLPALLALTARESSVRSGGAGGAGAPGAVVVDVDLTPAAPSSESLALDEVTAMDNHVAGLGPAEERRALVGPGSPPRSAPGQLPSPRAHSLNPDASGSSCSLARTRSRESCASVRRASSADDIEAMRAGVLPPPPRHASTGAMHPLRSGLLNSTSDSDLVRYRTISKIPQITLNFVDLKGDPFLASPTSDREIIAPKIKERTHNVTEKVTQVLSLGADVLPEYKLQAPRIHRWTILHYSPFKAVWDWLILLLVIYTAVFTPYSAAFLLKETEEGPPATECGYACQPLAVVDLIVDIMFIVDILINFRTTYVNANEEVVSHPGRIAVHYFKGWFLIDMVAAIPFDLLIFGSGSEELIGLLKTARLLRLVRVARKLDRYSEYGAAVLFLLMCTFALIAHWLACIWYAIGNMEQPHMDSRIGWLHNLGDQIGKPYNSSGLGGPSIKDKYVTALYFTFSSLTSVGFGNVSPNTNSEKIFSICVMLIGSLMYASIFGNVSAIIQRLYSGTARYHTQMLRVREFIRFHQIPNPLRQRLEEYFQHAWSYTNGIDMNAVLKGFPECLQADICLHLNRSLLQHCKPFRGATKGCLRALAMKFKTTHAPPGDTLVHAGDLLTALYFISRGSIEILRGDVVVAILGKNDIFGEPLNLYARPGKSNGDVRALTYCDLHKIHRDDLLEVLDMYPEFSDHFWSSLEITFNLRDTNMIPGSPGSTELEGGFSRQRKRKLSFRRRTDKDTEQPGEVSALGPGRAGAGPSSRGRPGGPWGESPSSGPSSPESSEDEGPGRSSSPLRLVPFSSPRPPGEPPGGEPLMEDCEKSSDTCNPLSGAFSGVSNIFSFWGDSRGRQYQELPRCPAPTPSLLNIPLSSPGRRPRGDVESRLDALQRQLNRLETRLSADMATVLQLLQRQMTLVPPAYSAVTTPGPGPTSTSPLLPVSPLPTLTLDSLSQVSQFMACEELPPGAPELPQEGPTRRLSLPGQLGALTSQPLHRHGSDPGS

Q: How did the “hERG current change (%, negative = inhibition) at 10uM” value turn out when `O=C(CSc1nc2ccsc2c(=O)n1-c1ccccc1)N1CCCC1` was run?
A: 0.514%

Q: With `Cc1ccc(C(=O)NCCc2ccccn2)cc1S(=O)(=O)N1CCOCC1` as the compound, how does the “hERG current change (%, negative = inhibition) at 10uM” value read?
A: -11%

Q: With `CCn1c(C)nc2cc(C(=O)N/N=C/c3ccc(OC)c(O)c3)ccc21` as the compound, how does the “hERG current change (%, negative = inhibition) at 10uM” value read?
A: 3.24%

Q: How did the “hERG current change (%, negative = inhibition) at 10uM” value turn out when `CC(C)Oc1ccc(CCN)cc1Cl.Cl` was run?
A: -6.32%

Q: Which “hERG current change (%, negative = inhibition) at 10uM” value does the source give for `CC(NS(=O)(=O)c1ccc(F)cc1)C(=O)Nc1ccc2c(c1)OCCO2` (stereo not drawn) here?
A: 13.2%

Q: With `Cc1ccc(C)c(S(=O)(=O)NCC(=O)N2CCCC2)c1` as the compound, how does the “hERG current change (%, negative = inhibition) at 10uM” value read?
A: 11.1%

Q: Which “hERG current change (%, negative = inhibition) at 10uM” value does the source give for `Cc1cc(-c2cccnc2)c(C#N)c(SCC#N)n1` here?
A: -4.94%

Q: For `CCOC(=O)c1cc(NC(=O)N(C)C2CCCCC2)c(C)nc1C`, which “hERG current change (%, negative = inhibition) at 10uM” value is on record?
A: 10.6%

Q: For `O=C(Nc1ccc(F)cc1)C(Sc1nnc2ccccn12)c1ccccc1` (stereo not drawn), which “hERG current change (%, negative = inhibition) at 10uM” value is on record?
A: 4.56%

Q: `O=S(=O)(c1cccc(C(F)(F)F)c1)N1CCN(c2ccccc2)CC1` was tested. Which “hERG current change (%, negative = inhibition) at 10uM” value did it give?
A: -14.4%

Q: Which “hERG current change (%, negative = inhibition) at 10uM” value does the source give for `COc1ccc(OC)c(CNC(=O)CCC(=O)N2Cc3ccccc3Oc3ncccc32)c1` here?
A: -26.6%

Q: With `Cc1ccc(NC(=O)COC(=O)c2ccccc2Nc2ccccc2)cc1` as the compound, how does the “hERG current change (%, negative = inhibition) at 10uM” value read?
A: 7.83%

Q: With `COC(=O)n1ccc(C(=O)Nc2ccccc2F)n1` as the compound, how does the “hERG current change (%, negative = inhibition) at 10uM” value read?
A: -8.09%

Q: `Cc1nc(Nc2ccc(F)cc2)[nH]c(=O)c1CCC(C)C` was tested. Which “hERG current change (%, negative = inhibition) at 10uM” value did it give?
A: -1.15%

Q: With `CCN1C(=O)N(CC)C2C1N(CO)C(=O)N2CO` (stereo not drawn) as the compound, how does the “hERG current change (%, negative = inhibition) at 10uM” value read?
A: 16.9%

Q: With `CCn1c(O)c(C=Nc2cc(Cl)ccc2Cl)c(=O)n(CC)c1=O` as the compound, how does the “hERG current change (%, negative = inhibition) at 10uM” value read?
A: 3.69%

Q: Which “hERG current change (%, negative = inhibition) at 10uM” value does the source give for `COc1ccc(COc2cc(-c3cccc(OC)c3)nc3ccc(NC(=O)c4ccc(Cl)cc4)cc23)cc1` here?
A: 8.61%

Q: Which “hERG current change (%, negative = inhibition) at 10uM” value does the source give for `COc1cc(/C=N/NC(=S)Nc2cccc(S(=O)(=O)N(C)C)c2)cc(OC)c1O` here?
A: -20.5%

Q: How did the “hERG current change (%, negative = inhibition) at 10uM” value turn out when `CC(C)(C)c1csc(NC(=O)c2ccc3nccnc3c2)n1` was run?
A: -57.2%

Q: For `Cc1ccc2sc(N3CCN(C(=O)C4=COCCO4)CC3)nc2c1C`, which “hERG current change (%, negative = inhibition) at 10uM” value is on record?
A: -15.6%

Q: With `CCCN(CCC)CCNC(=O)Cn1cnc2sc(C)c(S(=O)(=O)N3CCOCC3)c2c1=O` as the compound, how does the “hERG current change (%, negative = inhibition) at 10uM” value read?
A: 11.3%

Q: How did the “hERG current change (%, negative = inhibition) at 10uM” value turn out when `CCCCOc1ccc(N=Cc2ccc[nH]2)cc1` was run?
A: 24.5%

Q: Which “hERG current change (%, negative = inhibition) at 10uM” value does the source give for `O=C(NNC(=O)c1ccccc1F)c1ccc2[nH]c(=O)c(=O)[nH]c2c1` here?
A: 11.1%

Q: `Cc1cc(NCc2ccccc2Cl)n2nnnc2n1` was tested. Which “hERG current change (%, negative = inhibition) at 10uM” value did it give?
A: 19.6%

Q: Which “hERG current change (%, negative = inhibition) at 10uM” value does the source give for `O=C(Nc1cccc(-c2nc3cccnc3s2)c1)c1cccnc1Cl` here?
A: -21.8%

Q: How did the “hERG current change (%, negative = inhibition) at 10uM” value turn out when `O=C(Nc1ccncc1)c1ccccc1-c1ccccc1` was run?
A: 6.47%

Q: For `COc1ccc(-c2cc(C(F)(F)F)nc(N3CCN(Cc4ccccc4)CC3)n2)cc1OC`, which “hERG current change (%, negative = inhibition) at 10uM” value is on record?
A: 21.2%

Q: How did the “hERG current change (%, negative = inhibition) at 10uM” value turn out when `COc1ccc(C2c3ccsc3CCN2C(=O)NC(C)(C)C)cc1` (stereo not drawn) was run?
A: -10.2%

Q: How did the “hERG current change (%, negative = inhibition) at 10uM” value turn out when `CS(=O)(=O)NCc1nnc(SCC(=O)NC2CCCCC2)n1-c1ccc(F)cc1` was run?
A: 11.6%

Q: Which “hERG current change (%, negative = inhibition) at 10uM” value does the source give for `Nc1c(C(=O)CSc2nnc(Nc3ccc(F)cc3)s2)c(=O)[nH]c(=O)n1C1CC1` here?
A: 0.202%

Q: How did the “hERG current change (%, negative = inhibition) at 10uM” value turn out when `CCN1CCCC1CNC(=O)c1[nH]c2ccc(OC)cc2c1C` (stereo not drawn) was run?
A: -51.2%

Q: `Cc1onc(C(=O)Nc2ccccc2C(F)(F)F)c1[N+](=O)[O-]` was tested. Which “hERG current change (%, negative = inhibition) at 10uM” value did it give?
A: 18.6%

Q: How did the “hERG current change (%, negative = inhibition) at 10uM” value turn out when `O=C1CN(C(=O)COC(=O)c2cccnc2Cl)c2ccccc2N1` was run?
A: 14.5%

Q: How did the “hERG current change (%, negative = inhibition) at 10uM” value turn out when `CSc1nnc(-c2ccc([N+](=O)[O-])cc2)o1` was run?
A: 16.8%

Q: With `O=C(NCC1CCCO1)c1ccc(NC(=O)c2cccc(Br)c2)cc1` (stereo not drawn) as the compound, how does the “hERG current change (%, negative = inhibition) at 10uM” value read?
A: 16.4%

Q: With `Cc1ccc(NC(=O)c2ccc3c(=O)n4c(nc3c2)CCCCC4)cc1F` as the compound, how does the “hERG current change (%, negative = inhibition) at 10uM” value read?
A: -24.6%

Q: How did the “hERG current change (%, negative = inhibition) at 10uM” value turn out when `COc1cccc(CC(=O)Nc2nc3c(s2)C(=O)CC(C)(C)C3)c1` was run?
A: 5.12%

Q: `O=[N+]([O-])c1ccc(Oc2ccc(S(=O)(=O)N3CCOCC3)cc2)cc1` was tested. Which “hERG current change (%, negative = inhibition) at 10uM” value did it give?
A: -63.4%

Q: For `CCc1ccc(Nc2ncc3c(n2)CC(C)(C)CC3=O)cc1`, which “hERG current change (%, negative = inhibition) at 10uM” value is on record?
A: -6.91%

Q: For `Cc1cc(C)c(NC(=S)N(Cc2cccnc2)Cc2ccco2)c(C)c1`, which “hERG current change (%, negative = inhibition) at 10uM” value is on record?
A: -4.95%

Q: How did the “hERG current change (%, negative = inhibition) at 10uM” value turn out when `Cc1cc2cc(C)c(SCC(=O)NCc3ccco3)nc2cc1C` was run?
A: 18.8%

Q: `C=C1CCN(C(C)C(=O)OC)S(=O)(=O)c2ccccc21` (stereo not drawn) was tested. Which “hERG current change (%, negative = inhibition) at 10uM” value did it give?
A: 0.0558%

Q: With `Cn1nc(C(=O)NCC2CCCO2)c2ccccc2c1=O` (stereo not drawn) as the compound, how does the “hERG current change (%, negative = inhibition) at 10uM” value read?
A: -3%

Q: Which “hERG current change (%, negative = inhibition) at 10uM” value does the source give for `S=C(NCC1CCCO1)NC1CC1` (stereo not drawn) here?
A: 18.5%

Q: How did the “hERG current change (%, negative = inhibition) at 10uM” value turn out when `Cc1cccn2c(CNCCSc3nccn3C)c(C(=O)N3CCCCC3)nc12` was run?
A: 3.25%
